Screen size: about 46,000 compounds; about 60 (0.1%) were called active. Another 3% or so got no clear call; they are omitted. Calls come from the whole dose curve; as a rule, active = well fitted inhibition curve with a large enough effect; inconclusive = small, poorly fitted or top-dose-only effect; inactive = no such curve, though single readings can be large or run the other way. This is one part of the list.
Experiment: Primary qHTS assay for Inhibitors of ovarian cancer metastasis using an organotypic tumor microenvironment (TME) model.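 For activity change, negative = inhibition: plate controls were DMSO wells for no effect and tomatine positive control wells for full effect.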 Note: nearly all actives have a fitted effect of over 65% in size.
Conditions: SKOV3ip1-GFP adhesion/invasion on 3D omental model, fluorescence; series mostly up to 45.8 µM; activity change, negative = inhibition: at the top concentration
Method in brief: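 Primary human omental fibroblast/mesothelial 3D culture pre-formed 48 h. SKOV3ip1-GFP cells added with compounds (0.36-46 umol/L), incubated 2 h RT/16 h 37 C, fixed; GFP cells quantified at 488/509 nm.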

Activity change, negative = inhibition, inactive:
Cc1ccccc1NC(=O)CC(NCc1cccnc1)C(=O)O (stereo unspecified) -21.9%
CCOc1ccc(-c2nc3c(c(SCC(=O)Nc4ccccc4C)n2)Cc2ccccc2O3)cc1 3.37%
Cc1cc(C)n(-c2nc3ccccc3nc2Nc2ccc(N(C)C)cc2)n1 3.76%
CCOC(=O)c1ccc(NC(=O)c2cnc3c(-c4ccc(F)cc4)c(C)nn3c2C)cc1 8.56%
Cc1cc(C)c(Cn2c3ccccc3c3cnn(CC(=O)NCc4cccs4)c(=O)c32)c(C)c1 16.6%
Cc1ccccc1Cn1nnc2c(=O)[nH]c(C3CCN(C(=O)c4ccc(F)cc4)CC3)nc21 9.8%
CCc1ccc(CNC(=O)c2cnc3sc(N4CCCC4)nn3c2=O)cc1 -6.26%
CN(C)c1ccc(CNC(=O)c2ccc(Cn3c(SCc4ccccc4)nc4cccnc43)cc2)cc1 -0.738%
COc1ccc(CNC(=O)c2ccc(-c3nc(CSc4ccccc4)c(C)o3)cc2)cc1OC -5.43%
COc1ccc(CNC(=O)CSCc2nc(-c3ccccc3C)oc2C)cc1 1.94%
CCc1cccc(NC(=O)COC(=O)c2cn(CC)c3nc(C)ccc3c2=O)c1 8.83%
COc1ccc(-c2ccc3c(N)c(C(=O)c4ccc(OC)c(OC)c4)sc3n2)cc1 -5.32%
CCC(C)NC(=O)CCCN1C(=O)CCn2nc(-c3cccn3C)cc21 (stereo unspecified) 3.29%
CCc1ccc(-n2c(=O)c3c4c(sc3n(CC(=O)c3ccc(F)cc3)c2=O)CCC4)cc1 -20.9%
COc1ccccc1C(=O)Nc1ccccc1OCc1cc(=O)n2c(C)csc2n1 7.69%
CC(C)c1nn2c(=O)cc(COC(=O)c3ccc(NC(=O)COc4ccccc4)cc3)nc2s1 0.594%
COc1ccc(-c2cc(-c3ccccc3)c(C#N)c(SCC(O)CS(=O)(=O)Cc3ccc(Cl)cc3)n2)cc1 (stereo unspecified) -1.88%
O=C(CS(=O)(=O)c1cccc2nsnc12)N1CCN(c2cccc(Cl)c2)CC1 -0.239%
CC(=O)Nc1nonc1-c1nnc(SCC(=O)Nc2ccc(C)cc2)n1-c1ccccc1 18.5%
COC(=O)c1ccccc1NC(=O)c1cc(-c2ccccc2O)no1 7.34%
COc1ccc(NC(=O)CN2C(=O)CCn3nc(-c4cccn4C)cc32)cc1Cl -4.97%
Cc1ccc(NC(=O)CN2C(=O)c3ccccc3Sc3ccc(C(=O)N4CCOCC4)cc32)cc1F -32.7%
Cc1cccc(NC(=O)Cn2nnc(-c3nc(-c4ccncc4)no3)c2N)c1 9.32%
Cc1ccc(C(c2sc3nc(-c4ccco4)nn3c2O)N2CCCC2)cc1 (stereo unspecified) 1.08%
Cc1ccc(N(CC(=O)NCCc2ccc(Cl)cc2)S(=O)(=O)c2c(C)noc2C)cc1 4.61%
COc1cc(SC)ccc1C(=O)Nc1ccc(S(=O)(=O)Nc2nccc(C)n2)cc1 6.52%
COc1cccc(N2CCN(C(=O)c3ccc(C)c(NC(=O)c4nsc5ccccc45)c3)CC2)c1 2.76%
CCN(CC)CCNC(=O)C1CCN(C(=O)c2cnn(-c3ccccc3)c2-n2cccc2)CC1 3.28%
O=C(NCc1ccccc1)C1CCN(S(=O)(=O)Cc2ccccc2)CC1 7.69%
Cc1ccc(-n2c(SCc3ccccc3F)nc3[nH]ncc3c2=O)cc1Cl 4.74%
CNC[C@@H](O)[C@@H](O)[C@H](O)[C@H](O)CO 16.1%
CC(=O)NCCNC(=O)CCCn1c(=O)[nH]c2ccsc2c1=O 21.5%
CCCCOc1ccc(C2c3c(oc4ccc(C)cc4c3=O)C(=O)N2CCCN(C)C)cc1OCC (stereo unspecified) 4.09%
Cc1ccc2nc(NC(=O)CSc3[nH]c(=O)ncc3C)sc2c1 20.9%
Cc1ccc(NC(=O)CSc2nc(=O)cc(N)n2-c2ccccc2)cc1 3.41%
COCCN(CCOC)S(=O)(=O)c1ccc(C(=O)Nc2sc3c(c2C(=O)OC)CCN(C)C3)cc1 -9.92%
CCOC(=O)c1c(NC(=O)Cc2coc3cc(C)cc(C)c23)sc2c1CCC2 2.02%
Cc1ccc(-n2c(/C=C/c3c(C)n(C)c4ccccc34)nc3ccccc3c2=O)cc1 5%
Cc1ccc(C)c(NS(=O)(=O)c2cc3c(cc2C)n(C)c(=O)c(=O)n3C)c1 6.79%
CCN(CC)S(=O)(=O)c1cccc(C(=O)Nc2ccccc2C(=O)Nc2ccc(Cl)cc2)c1 2.52%
CCCN1CCN(CCCNC(=O)c2cc3c(=O)n(CC)c4ccccc4c3s2)CC1 -15.3%
Cc1cccc(-n2c(C)cc(C(=O)C(=O)Nc3ccccc3F)c2C)c1C 5.24%
O=c1[nH]c(SCc2c(F)cccc2Cl)nc2c1CCC2 -2.45%
CCOC(=O)c1ccccc1NC(=O)c1sc2nc3n(c(=O)c2c1C)CCCCC3 -1.94%
COC(=O)c1c(NC(C)=O)c2c3c(sc2n1Cc1cc(C)ccc1C)CCCC3 -5.49%
CCOc1cccc(C(=O)Nc2ccc(-c3nc4ncccc4o3)cc2C)c1 -13.9%
Clc1ccc2c(N3CCN(CCCN4CCN(c5ccnc6cc(Cl)ccc56)CC4)CC3)ccnc2c1 -4.02% [at 23.2 µM]
COc1cccc(NC(=O)c2cccc3c(=O)c4c([nH]c23)CCCC4)c1 1.97%
CCOc1ccc(-c2cccc(NS(=O)(=O)c3ccc(F)cc3F)c2)nn1 -6.85%
COc1ccc(C(=O)c2oc3ccccc3c2NC(=O)c2cc(=O)c3ccc(C)cc3o2)cc1Cl -2.41%
Cc1cccc(C(=O)Nc2nnc(S(=O)(=O)N(C)Cc3ccccc3)s2)c1 20.2%
O=S(=O)(c1cccc(Cl)c1)c1nnn2c1nc(NCc1ccc3c(c1)OCO3)c1sccc12 -3.22%
Cc1ccc(S(=O)(=O)NCC(c2ccco2)N2CCOCC2)cc1 (stereo unspecified) 1.36%
CC(=O)c1c(C)c2cnc(Nc3ccc(N4CCNCC4)cn3)nc2n(C2CCCC2)c1=O 17.6%
CCOc1ccc2ncc3c(-c4ccc(C)cc4)nn(-c4cccc(F)c4)c3c2c1 129%
CCN1C[C@H](C)n2c(c(O)c3c(=O)n(Cc4ccc(F)c(Cl)c4)nc(C(=O)NC)c32)C1=O 7.67%
Cc1ccc(C)c(N2CCN(C(=O)Cn3cnc4onc(-c5ccc(F)cc5)c4c3=O)CC2)c1 -5.85%
CC(=O)c1ccc(N2CCN(S(=O)(=O)c3cc4[nH]c(=O)c(=O)[nH]c4cc3C)CC2)cc1 1.28%
COc1ccccc1CNC(=O)C(=O)NCC(c1cccs1)S(=O)(=O)c1ccccc1 (stereo unspecified) 1.57%
CCc1nnc(NC(=O)c2cc(=O)c3cc(C)ccc3o2)s1 -4.34%
CCOC(=O)CSc1nc(-c2ccc(OCC)cc2)cc(C(F)(F)F)c1C#N 2.86%
COc1cccc(NC(=O)C(Cc2ccccc2)N2Cc3ccccc3C2=O)c1 (stereo unspecified) -4.93%
COc1cccc(-n2c(=O)c3cc(OC)c(OC)cc3n(CC(=O)Nc3ccc(F)cc3)c2=O)c1 1.07%
CC(C)CCOc1ccc(C(=O)NCC2OCCc3ccccc32)cc1 (stereo unspecified) 0.796%
COc1ccc(-c2noc(CCC(=O)N(C)c3cc(Cl)ccc3OC)n2)cc1 5.14%
COc1ccc(NS(=O)(=O)c2ccc(N3CCCCS3(=O)=O)cc2)cc1Cl 11%
CCOc1ccc(Nc2ncnc3c2c(-c2ccccc2)cn3-c2cccc(C)c2)cc1 -7.13%
CCCc1cnc2c(c1SCC(=O)Nc1ccccc1OCC)c(=O)n(C)c(=O)n2C -1.98%
CCC(=O)N1CCc2cc(Br)cc(S(=O)(=O)CCC(=O)Nc3cccc(Cl)c3)c21 19.6%
CCCn1c2ccc(F)cc2c2nnc(SCCN3CCCCC3)nc21 -11.9%
CCS(=O)(=O)N1CCCc2cc(C(=O)Nc3cccc(C(C)=O)c3)ccc21 0.532%
COc1cc(NC(=O)c2cccc(Cl)c2Cl)ccc1NC(=O)c1cc2ccccc2o1 7.52%

outcome, inactive:
Cc1cc(C)cc(NC(=O)Cn2c(-c3cncs3)nc3ccccc32)c1
COc1ccc(-n2nc(C(=O)Nc3ccccn3)c3c4ccccc4n(C)c3c2=O)cc1
COc1ccccc1OC(C)C(=O)Nc1cccc(-c2nc3ccccc3s2)c1 (stereo unspecified)
Cc1ccc(Cl)cc1NC(=O)C1CCN(c2nnc(C)c3c(C)n(-c4ccccc4)nc23)CC1
Cc1ccccc1CNC(=O)c1ccc2c(c1)c(C)c(C)n2C
CCCc1cc(=O)[nH]c(SCC(=O)N2CCN(c3ccccc3)CC2)n1
CCOC(=O)c1sc2cccc(F)c2c1S(=O)(=O)NCc1ccccc1Cl
CCCN1CCN(c2ncnc3sc(C(=O)Nc4ccc(C(C)C)cc4)c(C)c23)CC1
O=S(=O)(c1ccc(-c2cc(C(F)(F)F)on2)s1)N1CCN(c2ccccc2F)CC1
CC(=O)c1ccc(NC(=O)c2cc(C)nn2-c2ccccc2)cc1
Cc1ccc(S(=O)(=O)N2CCC(N3CCN(Cc4ccccc4)C(=O)C3=O)CC2)cc1C
CN(C)S(=O)(=O)N(CC(=O)NCCSCc1c(F)cccc1Cl)c1ccccc1
Cc1ccc(NC(=O)c2cc(S(=O)(=O)N3CCC4(CC3)OCCO4)ccc2F)cc1Cl
COc1ccc(-c2noc(CNC(=O)c3ccccc3Br)n2)cc1
Cc1ccc(S(=O)(=O)CC(=O)Nc2nc3c(C)cc(C)cc3s2)cc1
COc1ccc(-c2nc3c(c(SCC(=O)N4CCCCC4)n2)Cc2cc(C)ccc2O3)cc1
CCOc1ccc(OCC)c(NC(=O)c2cc(S(=O)(=O)N3CCc4ccccc43)cn2C)c1
CC(=O)Nc1ccc(/C=C/c2noc(-c3ccccc3O)n2)cc1
Cc1ccc2oc(=O)c3cc(C(=O)NCCCOC(C)C)sc3c2c1
COc1ccc(-n2nnnc2C2CCN(S(=O)(=O)c3cccc(C(F)(F)F)c3)CC2)cc1
Cc1ccc(NC(=O)CCCc2nc(-c3ccco3)no2)cc1Cl
COc1ccc(-n2c(SCC(=O)NCc3ccc(Cl)cc3)nc3ccsc3c2=O)cc1
CCOc1ccc(C(=O)N(Cc2ccc(C(C)C)cc2)Cc2ccco2)cc1
Clc1ccc(-c2nnn3c2nc(NC2CCCCC2)c2ccccc23)cc1
